From publication PMC12136788
The other results are listed elsewhere or left out.

T1: UNK ZnF1-3 (human, UniProt Q9C0B0 31-174)
T1 sequence: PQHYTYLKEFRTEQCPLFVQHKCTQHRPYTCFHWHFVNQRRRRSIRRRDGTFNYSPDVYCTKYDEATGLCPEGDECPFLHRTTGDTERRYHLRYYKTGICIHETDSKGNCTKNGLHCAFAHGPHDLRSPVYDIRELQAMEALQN

B1: 89559355_89559475_3338_3pUTR_ENSMUSG00000027950_ENSMUST00000029562|mouse|control|control (ssRNA)
RNA: GGGAGUUCUACAGUCCGACGAUCCCCUUGGCACUAGCUGCUCCAGACUUGCAGGUCUCCACAGAGGCAGGGGGCCUGUGGGCCAUCUGCCUAGGCAAAGGCGGCUGCCAGGUUACUGGAGCUUAGUCCCUGAUUCGAGUCCCCCAACAGAGGAUUGAGCAUCA
B2: chr19:8913615:8913616:-_ENSMUSG00000071658_ENSMUST00000096259|mus_hu|mus_mus_mus_hu_False|1_28 (ssRNA)
RNA: GGGAGUUCUACAGUCCGACGAUCAGGGUACCAAAACCUUCUGCCUGAAAUGGGUGCCCCACCCAGUAGGGAGUUGCAGCUGAAAGUAUCUGAUGCAGAAGCAGUGAAUGCAGAGAAGGAGGCCCCUGGGGAGGGCCCGAGAUCCAACAGAGGAUUGAGCAUCA
B3: chr8:30550554:30550555:-_ENSG00000104687_ENST00000414019|hu_hu|motif|central (ssRNA)
RNA: GGGAGUUCUACAGUCCGACGAUCGCCAGCGUUCUCCAGCUCCUCCGUGCAGUUGGUGCUGAUCAUUGAAUCAAAACUUCGGAGUACCUUAUCAUGCCGUAUCAUCAGUGAUGUCUUAGAACCCAGGGCUGACAGGAUCCCUGCCAACAGAGGAUUGAGCAUCA
B4: chr9:116041357:116041358:+_ENSG00000136875_ENST00000374198|hu_mus|FALSE|FALSE (ssRNA)
RNA: GGGAGUUCUACAGUCCGACGAUCUUCUCUUCGUUCAGCAGGGCCCUCUCCAAAAAGCGUGAUAGGCUCUCCCAAGGCUCGAAGGCAAGCCUUGACCUCUGAGUCAUCUGUGGAAACAUUGAUCUGCCGGGCUCGCUUUCUUCUCAACAGAGGAUUGAGCAUCA
B5: chr14:70237991:70237992:+_ENSG00000100650_ENST00000557154|hu_mus|FALSE|FALSE (ssRNA)
RNA: GGGAGUUCUACAGUCCGACGAUCCCUGCUCCUUGAUCGGCUGUAAGACUUGCUCCUUCGUGAACGGGAUCGGCUACGGGACCUAGAGGAACUUCUGGUCCGAGAUCGUGACCUGCUUCUUGACCUGUGCCUUUUGCUGCCUUCCAACAGAGGAUUGAGCAUCA
B6: 196311818_196311938_1409_3pUTR_ENSG00000174013_ENST00000440469|human|control|control (ssRNA)
RNA: GGGAGUUCUACAGUCCGACGAUCUGGGAACUGUAAGCCAAAAAUAAUACAAAAUGAGUCAAUACAACACAUCUCCUCUUAAAAUCCUCUUCUUUGUAGUUAACCCAGUUGUCCCCAAAUGUUAUUCCAAUUUUGUAACCAUGUCAACAGAGGAUUGAGCAUCA
B7: 93572924_93576970_823_CDS_ENSG00000107854_ENST00000371627|human|control|control (ssRNA)
RNA: GGGAGUUCUACAGUCCGACGAUCGGCAGAUGGAUCUGCUAAAUCCAAUGCUGUCCUUCCAUCUGUAUUUCGGAUGGUUGGCUCAGCUCCAUGCUGUAACAGCACAAUGCAAACAUCAAUCUUUCCUUUAAUUGCAGCUUCAUGCAACAGAGGAUUGAGCAUCA
B8: chr4:76721835:76721836:+_ENSG00000138768_ENST00000264904|hu_mus|hu_hu_hu_mus_True|18_18 (ssRNA)
RNA: GGGAGUUCUACAGUCCGACGAUCGUUUGGCUGGGGUUUCUGAGACGCUCUGGAAUAUAACUCAUGUUUGCUAAUAAAUCCUAGUUUCUCUAUGAAAUUCUCUUUGCCAAUCCUCUUUCAAUCAGUUUGCUUUAGUUUCUCUUUCAACAGAGGAUUGAGCAUCA
B9: chr13:43497316:43497317:+_ENSMUSG00000063200_ENSMUST00000071926|mus_hu|FALSE|FALSE (ssRNA)
RNA: GGGAGUUCUACAGUCCGACGAUCCUUCCUCAAAUAGGUUUAUGAUUUUUAUAAUGAUCCUUUAAAAUGAUCUAUGAAUGAUUUAUUAGAUAAAUUCUAUACAUACAAAGUACAGAUUCUUCAUUUAGCAUUGAUUUACUUCUUCAACAGAGGAUUGAGCAUCA
B10: chr12:39756943:39756944:-_ENSG00000139116_ENST00000544797|hu_mus|hu_hu_hu_mus_False|8_8 (ssRNA)
RNA: GGGAGUUCUACAGUCCGACGAUCGGUUUGGCUGUUACCCCCAAGGGAAUCCUGCAAGAGUCUUGUCAGCUUAGAGUCUCUGUAAGGGACAUGGGUGGCUCUCUUGCUCUUGUCCCCCAAGGCGCUGAUUACAUUGCCAAGAGCCAACAGAGGAUUGAGCAUCA
B11: chr12:39752152:39752153:-_ENSG00000139116_ENST00000544797|hu_hu|FALSE|FALSE (ssRNA)
RNA: GGGAGUUCUACAGUCCGACGAUCGUAUUUCAGGGUGUUUAACGUUUCCAUAAAGUCUCUGUCUGAAGGGCUGACACAUGCUAUCAUGAUUGUUUGGCUAUUACCCCCGAGGGAAUCCUGUAGUAGUCUUGUUAGCUUGGAAUCCAACAGAGGAUUGAGCAUCA
B12: chr1:6260860:6260861:+_ENSMUSG00000025907_ENSMUST00000027040|perfect_dup|FALSE|FALSE (ssRNA)
RNA: GGGAGUUCUACAGUCCGACGAUCUGGUUUGAGAUCCAGGGCAGGUAGAGACUCUGAAUGUAGAAAAUAUAAAGUAGGACUAACAGUAAAUAACACAUAAUUGUCAUGGCGUUCGUCUAGGAUGAUGAGUACCAAAUCUCCCACCAACAGAGGAUUGAGCAUCA
B13: chr7:141450121:141450122:+_ENSG00000106028_ENST00000265304|hu_mus|hu_hu_hu_mus_True|68_88 (ssRNA)
RNA: GGGAGUUCUACAGUCCGACGAUCUCAUCCGUUCUAUGCCUUUUCUUUCGUCUGGUCACUCAGAAAUAUAAUAUUAUCAGCUAUGAUUGUUGUUGCUUGCCGCCUCACAUUGUUUUUAUCCAUGUACUCGCCAUAGUCCACUUUCAACAGAGGAUUGAGCAUCA
B14: chr10:33190432:33190433:-_ENSG00000150093_ENST00000302278|hu_mus|hu_hu_hu_mus_True|28_48 (ssRNA)
RNA: GGGAGUUCUACAGUCCGACGAUCUACAUUUUCCAAACCUGCAUGUGAAUAAAACCCUGGCCACAGAGCCCCAAAACUACCCUACUGUGACUAUGGAGCUGCUGCUGUUGCAUUCAGGUUGCAAAAUCCGCCUGAGUAGGAUUCCAACAGAGGAUUGAGCAUCA

Biological target: T1, UNK ZnF1-3
Experiment: nsRBNS (natural sequence RNA bind-n-seq); RBNS binding buffer (assumed for nsRBNS): 25 mM Tris pH 7.5, 150 mM KCl, 3 mM MgCl2, 0.01% Triton X-100, 500 ug/ml BSA, 20 U/ml SUPERase-In, 4 C; UNK is unkempt and MSI1 is Musashi-1; names of the RNAs are library labels; protein concentration not given here; high values mean tight binding

**Q.** How did the binding signal turn out when B1 was run?
**A.** 0.592 enrichment R

**Q.** B2 was tested. Which binding signal did it give?
**A.** 1.38 enrichment R

**Q.** B3 was tested. Which binding signal did it give?
**A.** 0.956 enrichment R

**Q.** How did the binding signal turn out when B4 was run?
**A.** 0.617 enrichment R

**Q.** With B5 as the binder, how does the binding signal read?
**A.** 0.677 enrichment R

**Q.** For B6, which binding signal is on record?
**A.** 1.53 enrichment R

**Q.** With B7 as the binder, how does the binding signal read?
**A.** 0.57 enrichment R

**Q.** B8 was tested. Which binding signal did it give?
**A.** 0.469 enrichment R

**Q.** How did the binding signal turn out when B9 was run?
**A.** 1.88 enrichment R

**Q.** How did the binding signal turn out when B10 was run?
**A.** 0.576 enrichment R

**Q.** How did the binding signal turn out when B11 was run?
**A.** 0.672 enrichment R

**Q.** B12 was tested. Which binding signal did it give?
**A.** 2.18 enrichment R

**Q.** For B13, which binding signal is on record?
**A.** 0.541 enrichment R

**Q.** Which binding signal does the source give for B14 here?
**A.** 0.9 enrichment R
